Laboratory results reported in patent US20260174822A1 (SHATTUCK LABS, published 2026).

Target: human GLP-1 receptor on engineered CHO-K1 cells (human, UniProt P43220 24-463)
Test: flow cytometry on CHO-K1 cells expressing human GLP-1 receptor (Receptor Occupancy: CHOK1-hGLP1R Cells); secondary agent specific to the chimeric protein

Row | Binder | binding result | EC50 (read off the curve)
1 | GLP-1-RFRS-Fc-FGF19 chimeric protein (Fc fusion, Tied by name only; Tested as purified protein and as culture supernatant of mmRNA-transfected CHO-K1 or HEK293 cells; also called GLP-1 (RSRF)-Fc-FGF19) HGEGTFTSDVSSYLEEQAAKEFIAWLVKGRGRFRS[letters of human IgG1 Fc with changes omitted]IEGRMDMRDSSPLVHYGWGDPIRLRHLYTSGPHGLSSCFLRIRADGVVDCARGQSAHSLLEIKAVALRTVAIKGVHSVRYLCMGADGKMQGLLQYSEEDCAFEEEIRPDGYNVYRSEKHRLPVSLSSAKQRQLYKNRGFLPLSHFLPMLPMVPEEPEDLRGHLESDMFSSPLETDSMDPFGLVTGLEAVRSPSFEK | binds | 
2 | GLP-1-RFRS-Fc-FGF21 (RGE) chimeric protein (Fc fusion, Tied by name only; Tested as purified protein and as culture supernatant of mmRNA-transfected CHO-K1 or HEK293 cells; also called GLP-1 (RSRF)-Fc-FGF21 (RGE)) HGEGTFTSDVSSYLEEQAAKEFIAWLVKGRGRFRS[letters of human IgG1 Fc with changes omitted]IEGRMDHPIPDSSPLLQFGGQVRQRYLYTDDAQQTEAHLEIREDGTVGGAADQSPESLLQLKALKPGVIQILGVKTSRFLCQRPDGALYGSLHFDPEACSFRERLLEDGYNVYQSEAHGLPLHLPGNKSPHRDPAPRGPARFLPLPGLPPALPEPPGILAPQPPDVGSSDPLSMVGGSQGRSPSYES |  | ~10 µg/mL
